Measured values as given in the supplement of paper PMC4604168 (melanoma cell lines).
The other results are listed elsewhere or left out. Single values are uncertain, as repeats are few or missing.

Columns and labels:
Assay in all cases: cell count relative to DMSO control; melanoma cells; higher = more viable cells
Conditions in all cases: library dose: low library concentration; 72 h
MZ2-MEL = test system: MZ2-MEL
MeWo = test system: MeWo
RPMI7951 = test system: RPMI7951
RVH-421 = test system: RVH-421
SkMel28 = test system: SkMel28
SkMel2 = test system: SkMel2
SkMel30 = test system: SkMel30
SkMel5 = test system: SkMel5
UACC257 = test system: UACC257
UACC62 = test system: UACC62
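Further: cell number obtained by counting DAPI-stained nuclei in high-throughput microscope images with image analysis software, screen run in 1,536-well plates.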

| SMILES | cell count (MZ2-MEL) [%] | cell count (MeWo) [%] | cell count (RPMI7951) [%] | cell count (RVH-421) [%] | cell count (SkMel28) [%] | cell count (SkMel2) [%] | cell count (SkMel30) [%] | cell count (SkMel5) [%] | cell count (UACC257) [%] | cell count (UACC62) [%] |
| --- | --- | --- | --- | --- | --- | --- | --- | --- | --- | --- |
| CNC(=O)c1cc(Oc2ccc(NC(=O)Nc3ccc(Cl)c(C(F)(F)F)c3)cc2)ccn1 [sorafenib] + O=C(CCCCCCC(=O)Nc1ccccc1)NO [vorinostat] (first compound 0.4 µM, partner dose 0.08 µM) | 104 | 91.8 | 101 | 90.7 | 89.6 | 93.8 | 99.4 | 97 | 78.9 | 87.6 |
| CS(=O)(=O)CCNCc1ccc(-c2ccc3ncnc(Nc4ccc(OCc5cccc(F)c5)c(Cl)c4)c3c2)o1 [lapatinib] + CCCCCCCCCCCC1=C(O)C(=O)C=C(O)C1=O [Embelin] (first compound 0.8 µM, partner dose 1.2 µM) | 97.3 | 90.3 | 98.7 | 99.7 | 92.8 | 98 | 92.4 | 100 | 84.1 | 95.1 |
| C[C@@H](Oc1cc(-c2cnn(C3CCNCC3)c2)cnc1N)c1c(Cl)ccc(F)c1Cl [Crizotinib] + CC(C)CCN1c2nc(Nc3cc(F)c(O)c(F)c3)ncc2N(C)C(=O)C1C [BID1870] (first compound 0.2 µM, partner dose 0.2 µM) | 103 | 97.9 | 91.5 | 116 | 88.7 | 94.8 | 122 | 97.8 | 75.2 | 77.7 |
| CN1CCN(c2ccc3nc(-c4c(N)c5c(F)cccc5[nH]c4=O)[nH]c3c2)CC1 [Dovitinib] + CN(C)S(=O)(=O)c1ccc2c(c1)/C(=C/c1cc3c([nH]1)CCCC3)C(=O)N2 [SU6656] (first compound 0.1 µM, partner dose 0.4 µM) | 81.2 | 85.9 | 111 | 96.5 | 77.1 | 115 | 50.6 | 79.1 | 73.7 | 81.5 |
| CNC(=O)c1cc(Oc2ccc(NC(=O)Nc3ccc(Cl)c(C(F)(F)F)c3)cc2)ccn1 [sorafenib] + Oc1cc(-c2nc(-c3ccccc3)[nH]c2-c2ccncc2)ccc1Cl [L779450] (first compound 0.4 µM, partner dose 0.2 µM) | 95.7 | 82.5 | 97.9 | 82.2 | 76.2 | 97.7 | 94 | 95.7 | 90.3 | 64 |
| C=CCNC1=C2C[C@@H](C)C[C@H](OC)[C@H](O)[C@@H](C)/C=C(\C)[C@H](OC(N)=O)[C@@H](OC)/C=C\C=C(/C)C(=O)NC(=CC1=O)C2=O [Tanespimycin] + CC(C)CCN1c2nc(Nc3cc(F)c(O)c(F)c3)ncc2N(C)C(=O)C1C [BID1870] (first compound 0.002 µM, partner dose 0.2 µM) | 110 | 85.9 | 108 | 115 | 84.6 | 104 | 82.3 | 90.7 | 102 | 80.9 |
| C[C@@H](Oc1cc(-c2cnn(C3CCNCC3)c2)cnc1N)c1c(Cl)ccc(F)c1Cl [Crizotinib] + O=C(O)C(=O)Nc1sc2c(c1C(=O)O)CCNC2 [TCS401] (first compound 0.2 µM, partner dose 1.66667 µM) | 101 | 99.2 | 102 | 83 | 85 | 103 | 112 | 88.8 | 104 | 94.8 |
| CS(=O)(=O)CCNCc1ccc(-c2ccc3ncnc(Nc4ccc(OCc5cccc(F)c5)c(Cl)c4)c3c2)o1 [lapatinib] + NCC(=O)Nc1ccc(-n2nc(C(F)(F)F)cc2-c2ccc3c(ccc4ccccc43)c2)cc1 [OSU03012] (first compound 0.8 µM, partner dose 1 µM) | 81.5 | 63.4 | 97 | 79.9 | 80.3 | 60.1 | 62.8 | 93.4 | 114 | 92.5 |
| CN1CCN(c2ccc3nc(-c4c(N)c5c(F)cccc5[nH]c4=O)[nH]c3c2)CC1 [Dovitinib] + CCN(CC)CCCCNc1ncc2cc(-c3cc(OC)cc(OC)c3)c(NC(=O)NC(C)(C)C)nc2n1 [PD173074] (first compound 0.1 µM, partner dose 0.1 µM) | 96.3 | 96.5 | 127 | 100 | 89.5 | 101 | 80.5 | 107 | 102 | 117 |
| CNC(=O)c1cc(Oc2ccc(NC(=O)Nc3ccc(Cl)c(C(F)(F)F)c3)cc2)ccn1 [sorafenib] + COc1ccc(-c2ccc3c(N4CCOCC4)nc(N4C[C@@H](C)O[C@@H](C)C4)nc3n2)cc1CO [KU0063794] (first compound 0.4 µM, partner dose 0.02 µM) | 92.5 | 113 | 96.8 | 99.3 | 88.5 | 98.3 | 81.8 | 88.2 | 91 | 95.1 |
| C=CCNC1=C2C[C@@H](C)C[C@H](OC)[C@H](O)[C@@H](C)/C=C(\C)[C@H](OC(N)=O)[C@@H](OC)/C=C\C=C(/C)C(=O)NC(=CC1=O)C2=O [Tanespimycin] + CN(C)S(=O)(=O)c1ccc2c(c1)/C(=C/c1cc3c([nH]1)CCCC3)C(=O)N2 [SU6656] (first compound 0.002 µM, partner dose 0.4 µM) | 97.6 | 85.9 | 67.5 | 105 | 69.9 | 107 | 91.3 | 86.7 | 94.5 | 77.6 |
